Results from the supplement of paper PMC5919970.
Structures can show the parent of a compound that is named as a salt. In all, about 2,000 compounds were measured (“fractional viability relative to vehicle”: median about 0.92, lowest 2% from about 0.11 on). The list shows a part of the results.

System: TYKNU
Experiment: fractional viability relative to vehicle; TYKNU is a high-grade serous ovarian cancer line; higher = less growth inhibition
Conditions: 72 h, genotype: OPA1 knockout (sgOPA1 #2)
Outline: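 Drug treatment lasted 72 h, with cells grown at 37 °C in 5% CO2 in RPMI 1640 supplemented with 10% FBS. Beforehand, TYKNU control cells or their lentiCRISPRv2 knockout derivatives had been seeded at 500 cells per well into drug-stamped 384-well plates carrying a ~2100-compound library at 2 or 10 μM, in duplicate. Viability came from Cell Titer Glo luminescence, with averaged duplicate treatment wells normalised to duplicate control wells in the same plate position.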

SMILES | fractional viability (2uM) | fractional viability (10uM)
Clc1ccc(C(c2ccccc2Cl)C(Cl)Cl)cc1 (stereo not drawn) [Mitotane] | 0.942 | 0.979
O=C1O[C@H]([C@@H](O)CO)C(O)=C1O [Vitamin C] | 0.931 | 0.966
Cc1cccc(C)c1OCC(=O)N[C@@H](Cc1ccccc1)[C@@H](O)C[C@H](Cc1ccccc1)NC(=O)[C@H](C(C)C)N1CCCNC1=O [Lopinavir] | 1.13 | 1.01
CCCCN1CCCC[C@H]1C(=O)Nc1c(C)cccc1C [Levobupivacaine HCl] | 1.06 | 0.949
CCCc1cc2c(N3CCN(C4=NCC(C)(C)S4)CC3)ncnc2s1 [MI-2 (Menin-MLL Inhibitor)] | 0.828 | 0.711
CNCc1ccc(C)c(NC(=O)c2ccc(Nc3nc(-c4ccccc4)c4ccccc4n3)cc2)c1 | 1.13 | 0.134
Nc1ccc(C(=O)O)c(O)c1 [Sodium 4-Aminosalicylate] | 0.937 | 0.914
COc1cc(CCc2cc(NC(=O)c3ccc(N4CC(C)NC(C)C4)cc3)n[nH]2)cc(OC)c1 (stereo not drawn) | 1.3 | 0.804
Cc1[nH]nc2ccc(-c3cncc(OC[C@@H](N)Cc4ccccc4)c3)cc12 | 0.484 | 0.252
CC(C)[C@H](O)C(=O)N[C@@H](C)C(=O)N[C@@H]1C(=O)N(C)CCc2ccccc21 | 1.3 | 1.03
Nc1ccc(/N=N/c2ccccc2)c(N)n1 [Phenazopyridine HCl] | 0.997 | 0.876
CCC(=O)O[C@]1(C(=O)SCF)[C@H](C)C[C@H]2[C@@H]3C[C@H](F)C4=CC(=O)C=C[C@]4(C)[C@@]3(F)[C@@H](O)C[C@@]21C [Fluticasone propionate] | 1.07 | 0.822
Cc1c(C(=O)N2CCOc3ccc(-c4ccc(N)nc4)cc3C2)ccc(S(C)(=O)=O)c1F | 0.827 | 0.602
CC(NCCc1ccc(O)cc1)C(O)c1ccc(O)cc1 (stereo not drawn) [Ritodrine HCl] | 1.09 | 0.754
C[C@H](Nc1ncnc2nc[nH]c12)c1cc2cccc(Cl)c2c(=O)n1-c1ccccc1 | 0.926 | 1.05
CC(C)(O)CC(=O)NCCn1ccc2ncnc(Nc3ccc(Oc4cccc(C(F)(F)F)c4)c(Cl)c3)c21 | 0.896 | 0.76
CC(C)c1cnn2c(NCc3ccccc3)cc(NCCCCCCN)nc12 | 1.18 | 0.799
O=C(c1ccc(F)c(F)c1Nc1ccc(I)cc1F)N1CC(O)([C@@H]2CCCCN2)C1 [Cobimetinib (GDC-0973, RG7420)] | 0.722 | 0.831
O=S(=O)(c1cccc2cnccc12)N1CCCNCC1 [Fasudil (HA-1077) HCl] | 0.988 | 1.16
COc1cc2nc(N3CCCN(C)CC3)nc(NC3CCN(Cc4ccccc4)CC3)c2cc1OC | 0.506 | 0.0546
O=C(CSc1nc2c(c(=O)n1-c1ccccc1)SCC2)Nc1ccc(-c2ccccc2)cn1 | 1.09 | 0.948
CCC(C)(C)C(=O)O[C@H]1C[C@@H](C)C=C2C=C[C@H](C)[C@H](CC[C@@H]3C[C@@H](O)CC(=O)O3)[C@H]21 [Simvastatin] | 0.852 | 0.602
CC(=O)Oc1ccc(C(c2ccc(OC(C)=O)cc2)c2ccccn2)cc1 [Bisacodyl] | 0.973 | 0.841

SMILES | fractional viability (2uM) | fractional viability (10uM)
CCOC(=O)CC(=O)N1CCSC1COc1ccccc1OC (stereo not drawn) [Moguisteine] | 1.06 | 0.798
N#CC[C@H](C1CCCC1)n1cc(-c2ncnc3[nH]ccc23)cn1 | 1.05 | 0.842
CCCc1nn(C)c2c(=O)[nH]c(-c3cc(S(=O)(=O)N4CCN(C)CC4)ccc3OCC)nc12 [Sildenafil Citrate] | 1.23 | 1.13
CN(C[C@@H]1COCCO1)S(=O)(=O)Nc1ccc2ccc3ncc(-c4cnn(C)c4)cc3c(=O)c2c1 | 1.17 | 0.558
C[C@H](CS)C(=O)N1CCC[C@H]1C(=O)O [Captopril] | 1.04 | 1.08
CN(Cc1cc(Br)cc(Br)c1N)C1CCCCC1 [Bromhexine HCl] | 0.995 | 0.985
Cn1cnc2c(F)c(Nc3ccc(Br)cc3Cl)c(C(=O)NOCCO)cc21 [Selumetinib (AZD6244)] | 0.809 | 0.561
Nc1nc(N)c2nc(-c3cccc(O)c3)c(-c3cccc(O)c3)nc2n1 | 0.979 | 1.03
NCCc1ccc(O)c(O)c1 [Dopamine HCl] | 0.661 | 0.373
CC[C@H](c1ccc(O)cc1)[C@@H](CC)c1ccc(O)cc1 [Hexestrol] | 1.07 | 0.798
Cc1c(Nc2ncccc2C(=O)O)cccc1C(F)(F)F [Flunixin Meglumin] | 1.23 | 1.05
OC[C@@H](O)CN1CCN(c2ccccc2)CC1 [Levodropropizine] | 0.994 | 0.835
N#CC1(c2ccc(NC(=O)c3cccnc3NCc3ccncc3)cc2)CCCC1 [Apatinib] | 0.883 | 0.984
CC(ONC(=O)c1cc(C(F)(F)F)cc(C(F)(F)F)c1)C(=O)Nc1ccc(Cl)cc1 (stereo not drawn) | 0.834 | 0.646
CN1CCN(C(=O)c2cc3cc(Cl)ccc3[nH]2)CC1 | 1.08 | 1.08
COc1ccc(CNc2nc(N3CCC[C@H]3CO)ncc2C(=O)NCc2ncccn2)cc1Cl [Avanafil] | 0.967 | 0.832
COC(=O)N[C@H](C(=O)N1CC2(CC2)C[C@H]1c1nc(-c2ccc3c(c2)C(F)(F)c2cc(-c4ccc5[nH]c([C@@H]6[C@H]7CC[C@H](C7)N6C(=O)[C@@H](NC(=O)OC)C(C)C)nc5c4)ccc2-3)c[nH]1)C(C)C [Ledipasvir (GS5885)] | 0.795 | 0.623
CC(=O)OCC(=O)[C@@]1(O)CC[C@H]2[C@@H]3CCC4=CC(=O)C=C[C@]4(C)[C@H]3[C@@H](O)C[C@@]21C [Prednisolone Acetate] | 1.15 | 1.17
CCCCOc1ccc(C(=O)CCN2CCCCC2)cc1 [Dyclonine HCl] | 1.06 | 0.796
COc1ccc(CCC(=O)Nc2nc3ccc(Cl)cc3s2)cc1OC | 0.989 | 1.04
C=C1C(=O)O[C@H]2[C@H]1CC/C(C)=C/CC[C@@]1(C)O[C@@H]21 [(-)-Parthenolide] | 0.557 | 0.0743
O=[N+]([O-])c1cn2c(n1)OC[C@@H](OCc1ccc(OC(F)(F)F)cc1)C2 | 1.15 | 1.66
Cn1nnc2c(C(N)=O)ncn2c1=O [Temozolomide] | 1.24 | 0.858

SMILES | fractional viability (2uM) | fractional viability (10uM)
CC(C)(C)CC(C)(C)c1ccc(OCCOCC[N+](C)(C)Cc2ccccc2)cc1 [Benzethonium Chloride] | 0.76 | 0.234
C=CC[N+]1([C@H]2C[C@H]3[C@@H]4CC[C@H]5C[C@H](O)[C@@H](N6CCOCC6)C[C@]5(C)[C@H]4CC[C@]3(C)[C@H]2OC(C)=O)CCCC1 [Rocuronium Bromide] | 1.16 | 1.11
Cc1ccc(C(=O)Cn2c3c(sc2=N)CCCC3)cc1 [Pifithrin-_ (PFT_)] | 0.901 | 0.889
CC(C)(C)NC(=O)[C@H]1CC[C@H]2[C@@H]3CC[C@H]4NC(=O)C=C[C@]4(C)[C@H]3CC[C@]12C [Finasteride] | 1.16 | 1.01
Nc1nc(N)c2nc(-c3ccccc3)c(N)nc2n1 [Triamterene] | 0.956 | 0.8
C=C1CC[C@H](O)C/C1=C/C=C1\CCC[C@]2(C)[C@@H]([C@H](C)/C=C/[C@H](C)C(C)C)CC[C@@H]12 [Vitamin D2] | 0.917 | 0.567
CCS(=O)(=O)N1CCN(c2ccc(Nc3ncc(C(N)=O)c(NC4CC4)n3)cc2)CC1 | 0.781 | 0.496
C[N+](C)(C)CC(O)CC(=O)[O-] (racemic) [DL-Carnitine HCl] | 1.03 | 0.946
C[N+](C)(C)C[C@H](O)CC(=O)[O-] [L-carnitine] | 0.815 | 1.07
O=C(c1ccccc1)c1ccc2nc(NC(=O)c3csc(C4CCN(c5ncnc6ccsc56)CC4)n3)[nH]c2c1 | 0.98 | 0.988
Cn1c(N2CCCCS2(=O)=O)nc(C(=O)NCc2ccc(F)cc2)c(O)c1=O | 1.05 | 1.02
CC(C)c1nc(CN(C)C(=O)N[C@@H](CCN2CCOCC2)C(=O)N[C@H](CC[C@H](Cc2ccccc2)NC(=O)OCc2cncs2)Cc2ccccc2)cs1 [Cobicistat (GS-9350)] | 1.01 | 0.896
Cc1cccc(-c2nn3c(c2-c2ccnc4ccc(C(N)=O)cc24)CCC3)n1 | 1.03 | 1.22
O=C(Nc1cccnc1)N1CCC(Cc2cccc(Oc3ccc(C(F)(F)F)cn3)c2)CC1 | 0.993 | 0.984
Cc1cc(C)nc(NS(=O)(=O)c2ccc(NC(=S)NC(=O)COc3ccc(Br)cc3Cl)cc2)n1 | 0.956 | 0.803
CN1C(C(=O)Nc2ccccn2)=C(O)c2sc(Cl)cc2S1(=O)=O [Lornoxicam] | 1.05 | 0.985
CC12CC3CC(C)(C1)CC(N)(C3)C2 [Memantine HCl] | 0.858 | 1.03
Cc1ccc(CNc2ncnc3ccc(-c4ccc(CO)o4)cc23)o1 | 0.989 | 1.02
COc1ccc(-c2cc(=O)c3c(OC)c(OC)c(OC)c(OC)c3o2)cc1 [Tangeretin] | 1.11 | 1.37
O=C(O)c1ccc(C=C2SC(=S)N(c3cccc(C(F)(F)F)c3)C2=O)cc1 | 0.868 | 0.776
CCC[C@@H]1C[C@@H](C(=O)N[C@@H]([C@H]2O[C@H](SC)[C@H](O)[C@@H](O)[C@H]2O)[C@@H](C)O)N(C)C1 [Lincomycin HCl] | 1.03 | 1.17
N#Cc1c(Oc2ccc(F)c(NC(=O)Cc3cccc(C(F)(F)F)c3)c2)ccc2nc(NC(=O)C3CC3)sc12 | 0.396 | 0.335
CO[C@H]1C[C@@H]2CC[C@@H](C)[C@@](O)(O2)C(=O)C(=O)N2CCCC[C@H]2C(=O)O[C@H]([C@H](C)C[C@@H]2CC[C@@H](OC(=O)C(C)(CO)CO)[C@H](OC)C2)CC(=O)[C@H](C)/C=C(\C)[C@@H](O)[C@@H](OC)C(=O)[C@H](C)C[C@H](C)/C=C/C=C/C=C/1C | 0.826 | 0.664
